Reference: publication PMC4336329 (PLoS ONE, 2015)
Out of some 310,000 compounds screened, about 2,200 (0.71%) showed an effect of 50% or more. Effects have a minus sign here. This is one part of the list.

Molecular target: human ether-à-go-go-related gene (hERG) potassium channel (human, UniProt Q12809)
Experiment: primary screen, population patch clamp on CHO cells stably expressing hERG

Sequence of human ether-à-go-go-related gene (hERG) potassium channel (Q12809 whole entry, looked up): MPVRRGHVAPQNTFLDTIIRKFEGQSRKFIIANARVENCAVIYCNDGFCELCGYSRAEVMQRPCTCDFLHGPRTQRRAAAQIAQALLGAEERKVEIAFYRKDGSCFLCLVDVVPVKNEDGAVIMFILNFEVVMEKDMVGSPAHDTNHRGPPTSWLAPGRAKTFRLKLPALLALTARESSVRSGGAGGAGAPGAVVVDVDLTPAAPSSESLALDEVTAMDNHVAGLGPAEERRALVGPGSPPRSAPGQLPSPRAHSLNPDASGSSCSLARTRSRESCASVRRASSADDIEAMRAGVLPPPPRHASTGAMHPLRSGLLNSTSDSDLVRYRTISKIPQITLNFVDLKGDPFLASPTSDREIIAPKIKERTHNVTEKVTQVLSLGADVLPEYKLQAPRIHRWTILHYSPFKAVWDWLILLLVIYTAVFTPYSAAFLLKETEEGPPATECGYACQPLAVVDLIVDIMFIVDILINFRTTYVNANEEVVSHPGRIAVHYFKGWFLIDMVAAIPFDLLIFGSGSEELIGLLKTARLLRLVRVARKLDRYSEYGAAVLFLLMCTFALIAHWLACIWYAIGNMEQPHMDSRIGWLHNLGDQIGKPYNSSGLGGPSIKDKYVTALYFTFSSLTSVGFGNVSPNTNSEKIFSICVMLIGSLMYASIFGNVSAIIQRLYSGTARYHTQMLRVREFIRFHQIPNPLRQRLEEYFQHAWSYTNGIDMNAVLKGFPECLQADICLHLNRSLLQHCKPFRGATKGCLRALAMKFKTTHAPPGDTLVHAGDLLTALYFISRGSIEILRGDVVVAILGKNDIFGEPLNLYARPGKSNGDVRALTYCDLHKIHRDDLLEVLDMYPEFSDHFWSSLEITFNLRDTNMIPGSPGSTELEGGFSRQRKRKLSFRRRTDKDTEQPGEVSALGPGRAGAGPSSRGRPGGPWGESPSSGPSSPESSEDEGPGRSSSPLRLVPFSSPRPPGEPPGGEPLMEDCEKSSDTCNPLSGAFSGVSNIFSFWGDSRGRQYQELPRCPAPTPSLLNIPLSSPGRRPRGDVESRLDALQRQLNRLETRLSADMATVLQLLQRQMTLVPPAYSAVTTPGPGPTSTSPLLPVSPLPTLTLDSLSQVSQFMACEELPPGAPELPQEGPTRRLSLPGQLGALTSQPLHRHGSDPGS

| Compound | hERG current change (%, negative = inhibition) at 1uM [%] |
| --- | --- |
| CCOC(=O)C1=NOC(CNC(=O)c2c(-c3ccccc3Cl)noc2C)C1 (stereo not drawn) | 16.3 |
| CCN(C(=O)CN1C(=O)c2ccc([N+](=O)[O-])cc2C1=O)C1CCCCC1 | 6.36 |
| O=C1C(Oc2ccccc2)C(c2cccs2)N1Cc1ccc2c(c1)OCO2 (stereo not drawn) | 4.75 |
| O=S(=O)(c1ccc(Cl)cc1)c1cnc2ccccc2n1 | 13.7 |
| COC(=O)C(NS(=O)(=O)c1ccc(N2CCCC2=O)cc1)c1ccccc1 (stereo not drawn) | 10.4 |
| O=C(C(Cc1ccccc1)n1cccc1)N1CCCCC1 (stereo not drawn) | 7.29 |
| CCOC(=O)N1CCN(C(=O)COC(=O)CSc2cc(C)c(Br)cc2C)CC1 | -3.54 |
| O=C(NCC1CCCO1)/C(=C/c1ccccc1)NC(=O)c1ccccc1 (stereo not drawn) | 7.74 |
| Cc1c(OC(C)C(=O)NCCCN2CCOCC2)ccc2c3c(c(=O)oc12)CCCC3 (stereo not drawn) | 1.32 |
| COc1ccc(N2CCN(C(=O)CCCSc3nc4ccccc4[nH]3)CC2)cc1 | -29.6 |
| CNC(=O)c1cc(C(=O)c2ccccc2Br)c[nH]1 | 12.2 |
| CCOC(=O)c1c(C)[nH]c(C(=O)Cn2c(=O)c3c(ncn3CC)n(Cc3ccccc3)c2=O)c1C | 1.3 |
| Cc1ccsc1/C=N/NC(=O)c1nnn(-c2nonc2N)c1-c1ccccc1 | 13.5 |
| COc1ccc(C(=O)NC(Cc2ccccc2)c2ccc3c(c2)OCCCO3)cc1 (stereo not drawn) | 3.96 |
| Cc1cnc(C(=O)OCC(=O)c2ccc(C)s2)cn1 | 6.59 |
| Cc1c(NC(=O)Nc2cccc(C#N)c2)c(=O)n(-c2ccccc2)n1C | 9.66 |
| CCCn1c(SCC(=O)N2N=C3/C(=C/c4ccc(OC)cc4)CCCC3C2c2ccc(OC)cc2)n[nH]c1=O (stereo not drawn) | 18 |
| CCOC(=O)C(C)Oc1ccc(NC(=O)C(Cl)(Cl)Cl)cc1 (stereo not drawn) | 2.49 |
| CCOC(=O)Cn1nc(C)cc1NC(=O)c1ccncc1 | 5.9 |
| C=CCn1cnc2c(nnn2-c2ccc(C)c(Cl)c2)c1=O | 9.97 |
| C#CCN1C(=O)S/C(=C\c2cc3c(cc2OC)OCO3)C1=O | 3.03 |
| Fc1ccccc1Sc1ccccc1CNC1=NCCN1.I | 14.6 |
| COC(=O)C1(Cc2cc(-c3ccc(Cl)cc3)no2)CCN(C(=O)OC(C)(C)C)CC1 | -4.66 |

| Compound | hERG current change (%, negative = inhibition) at 1uM [%] |
| --- | --- |
| O=CN1CCN(S(=O)(=O)c2ccc(Cl)c(C(=O)O)c2)CC1 | 4.64 |
| O=C(Nc1ccccc1)OCc1cn(-c2ccc(Cl)cc2)nn1 | 11.8 |
| C=C(C)c1cccc(C(C)(C)NC(=O)N2CCN(c3ccc(OC)cc3)CC2)c1 | 11 |
| O=c1cc(CSc2ccc([N+](=O)[O-])cc2)nc2sccn12 | -1.12 |
| O=C(c1ccccc1)c1nn(-c2ccccc2)c2nnc(Cc3ccccc3)c(=O)n12 | 4.97 |
| COCCNC(=S)N(CCc1c(C)[nH]c2ccccc12)Cc1ccco1 | 5.58 |
| CC(C)NS(=O)(=O)c1ccc(NC(=O)C(C)OC(=O)CCC(=O)c2cccs2)cc1 (stereo not drawn) | 12.6 |
| CCOC(=O)Nc1cc(C(=O)OC)cc(C(=O)OC)c1 | 9.12 |
| CC(CS(=O)(=O)c1ccc2c(c1)NC(=O)CS2)C(=O)N1CCN(c2cccc(Cl)c2)CC1 (stereo not drawn) | -2.97 |
| COC(=O)Cn1c(Cc2ccccc2)nc2ccccc21 | 3.36 |
| OC1(c2nc3ccccc3[nH]2)CCCCC1 | 10.5 |
| Cc1ccc(S(=O)(=O)NCCN2CCN(S(=O)(=O)c3ccccc3Cl)CC2)cc1 | 5.88 |
| CCC(C)NS(=O)(=O)c1ccc(OCC(=O)NCc2ccc3c(c2)OCO3)cc1 (stereo not drawn) | 10.4 |
| O=C(O)c1ccccc1C(=O)NNc1ccc(Cl)cc1 | 13.2 |
| N#C/C(=C\c1c(N2CCC(C(N)=O)CC2)nc2ccccn2c1=O)C(=O)NCc1ccco1 | -10.1 |
| O=C(NCC(=O)N1CCCCCCC1)c1ccc(Br)o1 | 4.93 |
| CC1CCN(CC(C)OC(=O)c2ccco2)CC1.Cl (stereo not drawn) | 11.3 |
| Fc1ccc(-n2c(-c3ccco3)nc3nc4ccccc4nc32)cc1 | -2.19 |
| CCOc1ccc(NC(=O)CC2C(=O)N(c3ccccc3)C(=O)N2Cc2ccco2)cc1 (stereo not drawn) | 2.9 |
| Cc1ccc2[nH]c(O)c(N=NC(N)=S)c2c1 | 8.68 |
| CCOC(=O)C1(C)NC(c2ccccc2F)C2C(=O)N(c3cccc(C(C)=O)c3)C(=O)C21 (stereo not drawn) | 15.4 |
| CC(=O)Cc1nsc(NC(=O)c2cc(-c3cccc(C(F)(F)F)c3)oc2C)n1 | 9.34 |
